PMC7293033, “Regulation of mRNA export through API5 and nuclear FGF2 interaction” (Nucleic Acids Research, 2020)

Target: T1, GST-UAP56 (human, UniProt Q13838)
T1 construct: UAP56 (DDX39B), ATP-dependent RNA helicase, in pGEX-4T-3; GST-UAP56 is the only UAP56 construct described; also called DDX39B; source: purified recombinant (pGEX-4T-3 construct)
Assay: SPR; UAP56 with API5, FGF2, the API5–FGF2 complex or PBK as analyte proteins; purified recombinant proteins
Conditions: both partners purified

Chain of GST-UAP56 (Q13838 whole entry): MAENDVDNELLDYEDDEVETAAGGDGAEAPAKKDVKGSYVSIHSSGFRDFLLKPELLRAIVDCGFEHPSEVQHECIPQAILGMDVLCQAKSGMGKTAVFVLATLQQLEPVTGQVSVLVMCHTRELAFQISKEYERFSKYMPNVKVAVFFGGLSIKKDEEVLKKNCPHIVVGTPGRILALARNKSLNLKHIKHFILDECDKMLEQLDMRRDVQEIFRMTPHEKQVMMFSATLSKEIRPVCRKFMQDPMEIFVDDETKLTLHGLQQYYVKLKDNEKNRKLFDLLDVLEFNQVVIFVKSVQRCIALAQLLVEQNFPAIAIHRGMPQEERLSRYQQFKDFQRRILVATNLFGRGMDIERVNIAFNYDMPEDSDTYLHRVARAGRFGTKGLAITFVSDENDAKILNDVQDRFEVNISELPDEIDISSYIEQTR

B1: His-FGF2, LMW FGF2 ([…], C211S/C229S) (natural protein)
chain: not shown
notes: human FGF2, low-molecular-weight isoform, […], codon-optimised synthetic gene in a modified pET-28b(+); C211S/C229S corresponds to C69S/C87S of earlier FGF2 structures; also called His-LMW FGF2; fibroblast growth factor 2; source: E. coli Rosetta2(DE3), purified (Ni-NTA, Superdex SEC)
For B1, the Kd was 382 ± 6 nM.
